# The list shows a part of the results. At the low end of the ranking the order means little.
# Target: SIX1-Q177R homeodomain (UniProt Q15475)
# Test: universal protein binding microarray
# Settings: Universal all-10-mer PBM (8x60K, AMADID 030236), 300 nM GST-tagged protein, Alexa Fluor 488 anti-GST; buffer, salt, pH and temperature not stated; high values mean tight binding; most listed sequences are background and not binding sites; double strand, one strand shown
row,Sequence,binding signal
1,GAAGCGAC,-0.0645 E-score
2,ATTGTCGG,-0.0948 E-score
3,GCACCGCC,0.265 E-score
4,AAAAGATA,-0.243 E-score
5,AAAAATTC,0.00686 E-score
6,AGAAGGCG,-0.119 E-score
7,ATACAACC,0.0293 E-score
8,AACTAACA,0.242 E-score
9,ATGGCAAT,-0.28 E-score
10,GGAGAAGA,-0.184 E-score
11,CTATAGAA,-0.0387 E-score
12,TGCGACAA,-0.228 E-score
13,CCTCTTAG,-0.157 E-score
14,CCCGTTAG,-0.0237 E-score
15,CTTTCTTC,-0.222 E-score
16,CAGTCAGA,0.00636 E-score
17,CACCTCGA,0.217 E-score
18,AAACTCCC,-0.0635 E-score
19,GAATGAAC,-0.191 E-score
20,ACAGTCCA,-0.176 E-score
21,CTACTGCA,0.0454 E-score
22,GTAGATTA,0.143 E-score
23,AGCCATAT,-0.0662 E-score
24,GACTGCCA,-0.194 E-score
25,CGACCATC,0.073 E-score

row,Sequence,binding signal
1,ACTCGTCC,-0.129 E-score
2,ATAGGGCG,-0.102 E-score
3,CACGCACA,0.262 E-score
4,ACGCGCCA,-0.0748 E-score
5,GGGCTCAC,0.0957 E-score
6,AGCCTTCC,-0.338 E-score
7,CACGAACG,0.207 E-score
8,ACTGGTTC,0.116 E-score
9,CGCGTATA,0.02 E-score
10,ATGTCATA,-0.242 E-score
11,GCGCGGAA,-0.0705 E-score
12,ACTCCGCA,0.225 E-score
13,AACTAAGC,-0.111 E-score
14,AGCAACTG,-0.283 E-score
15,AGCTCAGA,-0.225 E-score
16,AACAGCGG,-0.224 E-score
17,CGGTCACC,-0.0347 E-score
18,AAGCTTTG,-0.199 E-score
19,GCTTTATA,0.0268 E-score
20,ACGACCAG,0.101 E-score
21,ATCGTCAG,-0.0499 E-score
22,CCTTGGAC,-0.0763 E-score
23,GCTGGACC,-0.0526 E-score
24,CGGGCACA,0.199 E-score
25,CAGACCGA,-0.116 E-score

row,Sequence,binding signal
1,CTCTCCTC,-0.0725 E-score
2,GCCCCCGC,0.109 E-score
3,AGCCCATC,-0.068 E-score
4,GCCAGAGA,-0.159 E-score
5,CGGTGCTA,0.2 E-score
6,ATGTATCC,0.00305 E-score
7,AAGGCACT,-0.0806 E-score
8,CTCGCTAC,-0.0754 E-score
9,GAGTGAGA,0.0347 E-score
10,ACTAGTCC,-0.0784 E-score
11,AACTTTGG,-0.0984 E-score
12,CGCTGAAC,-0.111 E-score
13,CTAGACAG,-0.084 E-score
14,AATAGTCA,-0.176 E-score
15,CCCACCAC,0.158 E-score
16,AGATGGTA,-0.0721 E-score
17,ATTCACGC,-0.0357 E-score
18,CTCTGCTC,-0.197 E-score
19,CACGGATG,0.155 E-score
20,CCATCGTA,0.0875 E-score
21,AAGTGGTA,-0.0332 E-score
22,ATACCTAG,0.196 E-score
23,AGCGTGCA,0.0729 E-score
24,ATGCCCAG,-0.0933 E-score
25,ACAGTGCG,-0.102 E-score

row,Sequence,binding signal
1,CGTGGGTA,0.00698 E-score
2,CTCAAGAA,-0.0711 E-score
3,AGAGAGCG,-0.227 E-score
4,CTCTATCC,0.037 E-score
5,GAACGCGC,0.0768 E-score
6,TAGGTCGA,0.034 E-score
7,AGGCGAGC,-0.00503 E-score
8,CCCGATAC,0.293 E-score
9,CCGCCTCA,-0.0946 E-score
10,ACAGAAAG,-0.164 E-score
11,ACTGCGTC,-0.12 E-score
12,GCCTGGGA,-0.02 E-score
13,ATGACCTC,-0.126 E-score
14,CGCATGCA,0.0964 E-score
15,TAGGAATA,-0.124 E-score
16,ATAGGGAA,-0.0588 E-score
17,CGCACCGA,0.149 E-score
18,ACAGCGAT,-0.233 E-score
19,TATATGCA,0.0411 E-score
20,ATTGACTG,-0.106 E-score
21,ACGGGAGT,0.186 E-score
22,AGTTCAAT,-0.22 E-score
23,CCGTTTTA,-0.126 E-score
24,ACTATGAT,-0.138 E-score
25,ACAACAGT,-0.0519 E-score

row,Sequence,binding signal
1,GCGGTCAC,-0.0825 E-score
2,GTATGGAC,0.0376 E-score
3,TAAGGAAA,-0.376 E-score
4,AACGAATT,-0.21 E-score
5,CGTCTCTA,-0.23 E-score
6,GCAAAACC,-0.145 E-score
7,CACAATTC,0.0566 E-score
8,GACCTGGC,-0.0774 E-score
9,CCACACCC,0.393 E-score
10,CACTGGTA,0.313 E-score
11,CAAACGAA,-0.149 E-score
12,ACTACAAC,0.0769 E-score
13,AAGTTATC,-0.0286 E-score
14,ATGTGGTA,-0.0315 E-score
15,CAAACCTG,-0.0421 E-score
16,CGGCTGAA,-0.0912 E-score
17,ACTTAATG,0.219 E-score
18,ACACCTAG,0.445 E-score
19,CGCGTTGC,-0.0153 E-score
20,GATGACGC,-0.0158 E-score
21,CGCATGAA,-0.129 E-score
22,CGTGCGGC,-0.0226 E-score
23,AACTGAAA,-0.0723 E-score
24,ATCTGTTA,-0.13 E-score
25,CTCGCCTA,-0.0855 E-score

row,Sequence,binding signal
1,ATCAATCG,0.0586 E-score
2,ATACAGCG,-0.105 E-score
3,ACAATCTG,-0.0678 E-score
4,CATTCAAC,-0.0658 E-score
5,AATAATTC,-0.073 E-score
6,ACCACGAG,-0.00694 E-score
7,CCCTACGG,0.109 E-score
8,AATCCCCA,0.168 E-score
9,ACAGGCAT,-0.233 E-score
10,GCTGTGCA,-0.0736 E-score
11,AATTTGCG,-0.103 E-score
12,AAGAGTTG,-0.167 E-score
13,CAGGTCCA,-0.125 E-score
14,GGCCCGCC,-0.0113 E-score
15,ACGTACAG,-0.0459 E-score
16,GAGGTTAA,-0.141 E-score
17,TATACGCA,0.0738 E-score
18,CGAGCTAC,0.00707 E-score
19,CACCCTGC,0.293 E-score
20,TGGCCACA,0.175 E-score
21,CATATTAC,0.00553 E-score
22,CTAGCGAA,-0.316 E-score
23,AAGGGGAA,-0.184 E-score
24,GTGTCCAA,0.419 E-score
25,GCACCCCA,0.257 E-score

row,Sequence,binding signal
1,GGCTCCTA,-0.0392 E-score
2,GTGCATTA,0.141 E-score
3,CCTCTAAC,-0.195 E-score
4,ATATTGTA,-0.0511 E-score
5,CCGACAAG,-0.18 E-score
6,CGAAATAA,-0.0653 E-score
7,AGCTCTTC,-0.0189 E-score
8,CGTCAGAC,-0.00347 E-score
9,AAACACCG,0.465 E-score
10,ACGCTTCT,-0.0578 E-score
11,CCTCCTGC,-0.145 E-score
12,GTTGAAAA,-0.0803 E-score
13,CTCAATAA,-0.105 E-score
14,CAACCACC,-0.122 E-score
15,CTAGTAAG,-0.144 E-score
16,ATCCGCAA,-0.153 E-score
17,ATGTAAGC,-0.171 E-score
18,AACCATTC,-0.111 E-score
19,CCGATTCG,-0.0886 E-score
20,GAGTATTA,0.0828 E-score
21,ACTTAGGG,0.181 E-score
22,AATCGTCT,-0.18 E-score
